{
  "source": "PubChem BioAssay AID1346428",
  "about": "(National Center for Advancing Translational Sciences (NCATS), 2018)",
  "note": "About 1,200 (2.5%) of roughly 48,000 compounds were called active. Inconclusive results (about 2%) are left out.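 Rule for the calls: active = activation of at least 60% and not above a set upper limit (about 1 call in 100 departs from these limits); inconclusive = activation of 40% to 60%, or above that upper limit; inactive = activation under 40%.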 The list shows a part of the results.",
  "data": [
    {"molecular_target": "Probable G-protein coupled receptor 32 (Homo sapiens) (UniProt O75388)", "sequence (O75388 whole entry, looked up, the tested form may be a part)": "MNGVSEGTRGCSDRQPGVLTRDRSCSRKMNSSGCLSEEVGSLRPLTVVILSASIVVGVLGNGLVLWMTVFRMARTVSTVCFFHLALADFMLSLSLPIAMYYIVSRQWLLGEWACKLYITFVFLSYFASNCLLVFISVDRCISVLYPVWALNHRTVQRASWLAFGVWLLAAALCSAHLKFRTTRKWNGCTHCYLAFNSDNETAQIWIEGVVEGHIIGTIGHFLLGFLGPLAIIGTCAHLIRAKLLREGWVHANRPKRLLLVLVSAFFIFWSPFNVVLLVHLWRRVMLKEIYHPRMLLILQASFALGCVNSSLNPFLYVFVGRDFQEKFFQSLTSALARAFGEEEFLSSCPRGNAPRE", "assay": "qHTS for Agonists of Human Resolvin D1 Receptor DRV1; note: 0% is about no effect", "conditions": "CHO-K1 GPR32 beta-arrestin PathHunter luminescence, 90 min; at 76.9 µM; hits give high values; zero percent set by DMSO-only wells", "summary_of_the_method": "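PathHunter enzyme-fragment complementation, CHO-K1 GPR32 stable line; 2,500 cells/well, overnight attach; cpd 90 min 37 °C 5% CO2; detection reagent 1 h RT; chemiluminescence. DMSO = EC0.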", "values": [
      {"smiles": "CC(Sc1cn(CCNC(=O)c2ccccc2F)c2ccccc12)c1ccccc1", "note": "(stereo not drawn)", "activation": "inactive: 15.2%"},
      {"smiles": "Cc1ccc(NC(=O)c2c(C)oc3nc(C)nc(N4CCCC4)c23)c(C)c1", "activation": "inactive: -18.8%"},
      {"smiles": "CCN(CCCNC(=O)CSc1cc(=O)n(CC)c2ccccc12)c1cccc(C)c1", "activation": "active: 74.8%"},
      {"smiles": "Cc1ccc2c(=O)c(C(=O)c3ccc(Cl)cc3)cn(CC(=O)NC3CCCCC3)c2n1", "activation": "inactive: 9.03%"},
      {"smiles": "CCOc1ccc(CCNC(=O)c2ccc(CS(=O)Cc3cccc(Cl)c3)o2)cc1", "note": "(stereo not drawn)", "activation": "inactive: -19.7%"},
      {"smiles": "COc1ccc(C)cc1NC(=O)Cn1c(=O)ccc2cc(S(=O)(=O)N3CCC(C)CC3)ccc21", "activation": "inactive: -17.1%"},
      {"smiles": "COC(=O)c1ccc(NC(=O)CSc2ncc3c(n2)-c2cc(Cl)ccc2N(Cc2ccccc2)S3(=O)=O)cc1", "activation": "inactive: 7.48%"},
      {"smiles": "COc1ccc(NC(=O)c2c(NCc3sccc3C)sc3c2CCCCC3)c(OC)c1", "activation": "inactive: -1.91%"},
      {"smiles": "O=S(=O)(c1ccc(F)cc1)N(Cc1nc(-c2ccc(Cl)cc2)no1)C1CCCCC1", "activation": "inactive: -8.65%"},
      {"smiles": "O=C(CCS(=O)(=O)c1cc(Br)cc2c1N(C(=O)C1CC1)CC2)NCc1ccccc1Cl", "activation": "inactive: -2.93%"},
      {"smiles": "Cc1c(NC(=O)c2cccc3c(Cl)cccc23)cccc1-c1nc2ccccc2o1", "activation": "inactive: 6.93%"},
      {"smiles": "COc1ccc(Br)cc1C(=O)Nc1ccc(-c2nc3cc(Cl)ccc3o2)cc1", "activation": "inactive: -3.73%"},
      {"smiles": "CCC(C(=O)Nc1cc(F)ccc1F)n1nc(-c2cc(C)ccc2C)ccc1=O", "note": "(stereo not drawn)", "activation": "inactive: 0%"},
      {"smiles": "CCOC(=O)N1CCc2c(sc3c2c(=O)n(Cc2ccccc2)c(=O)n3CC(=O)Nc2ccc(C)c(C)c2)C1", "activation": "inactive: -6.15%"},
      {"smiles": "Cc1ccc(NC(=O)CCC(=O)N2CCSc3ccccc32)cc1Cl", "activation": "inactive: 12.5%"},
      {"smiles": "COC(=O)C(C)n1nnc2sc(-c3ccccc3)cc2c1=O", "note": "(stereo not drawn)", "activation": "inactive: 34.9%"},
      {"smiles": "COc1ccc2c(c1)c(=O)c(S(=O)(=O)c1ccc(C)cc1)cn2Cc1ccccc1C", "activation": "inactive: 18%"},
      {"smiles": "COC(=O)c1sccc1S(=O)(=O)N(CC(=O)Nc1c(C)cccc1C)c1ccc(C)c(C)c1", "activation": "inactive: -13.7%"},
      {"smiles": "Cc1c(N(C)C)c(=O)n(-c2ccccc2)n1C", "activation": "inactive: -24.5%"},
      {"smiles": "Cc1c(Cl)cccc1NC(=O)Nc1nnc(N(C)Cc2ccccc2)s1", "activation": "inactive: -10.1%"},
      {"smiles": "CC(=O)c1ccc(NC(=O)Cn2cc(S(=O)(=O)Cc3ccccc3Cl)c3ccccc32)cc1", "activation": "inactive: -14.3%"},
      {"smiles": "Cc1c(NC(=O)C(C)(C)Oc2ccc(Cl)cc2)cccc1-c1nc2ncccc2o1", "activation": "inactive: 20.6%"},
      {"smiles": "CC1=C(C(=O)NCc2ccccc2C)C2(CCCCC2)OC1=O", "activation": "inactive: -5.31%"},
      {"smiles": "O=C(NCCCc1ccccc1)C1CCN(C(=O)N2CCOc3ccc(Cl)cc32)CC1", "activation": "inactive: 5.95%"},
      {"smiles": "CCOc1ccccc1NC(=O)CCn1nc(C)c(S(=O)(=O)N2CCCCC2)c1C", "activation": "inactive: -23.7%"},
      {"smiles": "COc1ccc(C2C=C(c3ccccc3)Nc3nc(NC(=O)/C=C/c4ccccc4)nn32)cc1", "note": "(stereo not drawn)", "activation": "inactive: -25.2%"},
      {"smiles": "Cn1ccc2c(OCC(=O)Nc3cc(C(F)(F)F)ccc3Cl)cccc2c1=O", "activation": "inactive: 10.5%"},
      {"smiles": "CCN(CC)S(=O)(=O)c1ccc2c(c1)c(=O)c(C(=O)N1CCN(c3ccc(F)cc3)CC1)cn2C", "activation": "inactive: -7.41%"},
      {"smiles": "COC(=O)CCN(c1ccccc1)S(=O)(=O)c1cc(-c2cc(C)no2)ccc1OC", "activation": "inactive: -23%"},
      {"smiles": "CCN1CCSc2ccc(C(=O)NCc3ccc(OC)cc3)cc21", "activation": "inactive: -18.8%"},
      {"smiles": "CCc1ccc(NC(=O)CSC2=Nc3ccccc3C3=NC(CC(=O)NCc4ccccc4)C(=O)N23)cc1", "note": "(stereo not drawn)", "activation": "inactive: -14%"},
      {"smiles": "O=C(Cn1ncc2c3ccccc3n(Cc3cccc(Cl)c3)c2c1=O)NC1CCCCCC1", "activation": "inactive: -8.91%"},
      {"smiles": "CC(=O)N1CCc2cc(S(=O)(=O)CCC(=O)NCc3ccc(Cl)cc3)ccc21", "activation": "inactive: 23.5%"},
      {"smiles": "CCOc1ccc2oc(=O)cc(CN3CCN(C(=O)c4ccc(F)cc4)CC3)c2c1", "activation": "inactive: -15.3%"},
      {"smiles": "CCNC(=O)CC1C(=O)N(c2cccc(OC)c2)C(=O)N1Cc1ccc(OC)c(OC)c1", "note": "(stereo not drawn)", "activation": "inactive: -1.87%"},
      {"smiles": "CS(=O)(=O)N1CCC(N2CCN(Cc3ccccc3)C(=O)C2=O)CC1", "activation": "inactive: -4.97%"},
      {"smiles": "CCc1ccc(-c2nc(CS(=O)CC(=O)NCCc3ccc(Cl)cc3)c(C)o2)cc1", "note": "(stereo not drawn)", "activation": "inactive: -18.7%"},
      {"smiles": "O=C1CCSC2(C(=O)N(Cc3ccc(F)cc3)c3ccccc32)N1c1ccc(F)c(F)c1", "note": "(stereo not drawn)", "activation": "inactive: -0.912%"},
      {"smiles": "O=S(=O)(Nc1cccc(-c2ccc(N3CCCCCC3)nn2)c1)c1cccc(F)c1", "activation": "inactive: -16.5%"},
      {"smiles": "CCOc1ccccc1N(CC(=O)N1CCc2ccccc2C1)S(=O)(=O)c1ccccc1", "activation": "inactive: -15.3%"},
      {"smiles": "Cc1nc2ncnn2c(C)c1CCC(=O)NCc1ccccc1Cl", "activation": "inactive: 5.6%"},
      {"smiles": "COc1cccc(NC(=O)Cn2c(=O)n(-c3ccc(C)cc3)c(=O)c3ccc(C(=O)NCc4ccco4)cc32)c1", "activation": "inactive: -12.7%"},
      {"smiles": "Cc1c(C(=O)Nc2cccc(Cl)c2)oc2ccc(S(=O)(=O)N(C)C3CCCCC3)cc12", "activation": "inactive: -10.2%"},
      {"smiles": "CCC(Sc1nncn2c1cc1oc(C)cc12)C(=O)Nc1ccc(F)cc1", "note": "(stereo not drawn)", "activation": "inactive: -21.9%"},
      {"smiles": "CCc1cccc(NC(=O)C(c2ccccc2)N2Cc3ccccc3C2=O)c1", "note": "(stereo not drawn)", "activation": "inactive: -27.6%"},
      {"smiles": "COc1cc(C)c(C)cc1S(=O)(=O)Nc1cccc(-c2ccc(N3CCOCC3)nn2)c1", "activation": "inactive: -2.01%"},
      {"smiles": "CCOCc1ccccc1Nc1ncnc2onc(-c3ccc(Cl)cc3)c12", "activation": "inactive: -0.585%"},
      {"smiles": "COc1ccccc1OCC(O)CO", "note": "(stereo not drawn)", "activation": "inactive: 8.89%"},
      {"smiles": "COc1ccc(CCNC(=O)C(=O)NCC(c2ccco2)S(=O)(=O)c2ccc(F)cc2)cc1", "note": "(stereo not drawn)", "activation": "inactive: 19.1%"},
      {"smiles": "COCCn1c(=N)c(C(=O)NC(C)c2ccccc2)cc2c(=O)n3cc(C)ccc3nc21", "note": "(stereo not drawn)", "activation": "inactive: -7.33%"},
      {"smiles": "O=C(NCCc1nc2ccccc2n1Cc1ccc(F)cc1)c1ccco1", "activation": "inactive: -5.84%"},
      {"smiles": "COc1ccc(CNC(=O)c2ccc(CS(=O)(=O)c3ccccc3OC)o2)cc1", "activation": "inactive: -4.95%"},
      {"smiles": "CCOc1ccc(CCNC(=O)Cn2nc(-c3ccc(C)cc3)ccc2=O)cc1OCC", "activation": "inactive: -22.9%"}
    ]}
  ]
}
